We go through 14 molecules from the supplement of paper PMC4604168 (melanoma cell lines).

The list shows a part of the results. Repeats are few or missing, and single values can be far off.
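Also: cells treated in 1,536-well plates, then fixed and DAPI-stained, with nuclei counted from automated high-throughput microscope images.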

This experiment concerns COLO792. As to the kind of experiment: cell count relative to DMSO control; melanoma cells; higher = more viable cells. The note with it: library dose: standard library concentration; 72 h.
`CS(=O)(=O)c1ccc(C(=O)Nc2ccc(Cl)c(-c3ccccn3)c2)c(Cl)c1` [vismodegib] + CCN(CC)CCCCNc1ncc2cc(-c3cc(OC)cc(OC)c3)c(NC(=O)NC(C)(C)C)nc2n1 [PD173074] (first compound 5 µM, partner dose 0.5 µM) came in with a cell count of 111%.
With `C=C(c1ccc(C(=O)O)cc1)c1cc2c(cc1C)C(C)(C)CCC2(C)C` [Bexarotene] + Cn1nnc2c(C(N)=O)ncn2c1=O [temozolomide] (first compound 10 µM, partner dose 10 µM) the figure was 81.1%.
The molecule `NC1(c2ccc(-c3nc4ccn5c(=O)[nH]nc5c4cc3-c3ccccc3)cc2)CCC1` + CCN(CC)CCCCNc1ncc2cc(-c3cc(OC)cc(OC)c3)c(NC(=O)NC(C)(C)C)nc2n1 [PD173074] (first compound 2 µM, partner dose 0.5 µM) had a cell count of 68.7%.
With `CN(c1ncccc1CNc1nc(Nc2ccc3c(c2)CC(=O)N3)ncc1C(F)(F)F)S(C)(=O)=O` + O=C(O)C(=O)Nc1sc2c(c1C(=O)O)CCNC2 [TCS401] (first compound 0.4 µM, partner dose 8.33333 µM) the figure was 99.1%.
`CN(c1ncccc1CNc1nc(Nc2ccc3c(c2)CC(=O)N3)ncc1C(F)(F)F)S(C)(=O)=O` + COc1ccc(COc2ccc(Cc3cnc(N)nc3N)cc2OC)cc1 [GW2580] (first compound 0.4 µM, partner dose 5 µM): the cell count came to 88.7%.
For `CN(c1ncccc1CNc1nc(Nc2ccc3c(c2)CC(=O)N3)ncc1C(F)(F)F)S(C)(=O)=O` + CCN(CC)CCCCNc1ncc2cc(-c3cc(OC)cc(OC)c3)c(NC(=O)NC(C)(C)C)nc2n1 [PD173074] (first compound 0.4 µM, partner dose 0.5 µM), the cell count amounted to 74%.
`NC1(c2ccc(-c3nc4ccn5c(=O)[nH]nc5c4cc3-c3ccccc3)cc2)CCC1` + c1cc(-c2cnn3cc(-c4ccc(OCCN5CCCCC5)cc4)cnc23)ccn1 [Dorsomorphin] (first compound 2 µM, partner dose 2 µM) gave a cell count of 47%.
As to `C=C(c1ccc(C(=O)O)cc1)c1cc2c(cc1C)C(C)(C)CCC2(C)C` [Bexarotene] + c1cc(-c2cnn3cc(-c4ccc(OCCN5CCCCC5)cc4)cnc23)ccn1 [Dorsomorphin] (first compound 10 µM, partner dose 2 µM), the cell count came to 69.5%.
`CS(=O)(=O)c1ccc(C(=O)Nc2ccc(Cl)c(-c3ccccn3)c2)c(Cl)c1` [vismodegib] + O=C(O)C(=O)Nc1sc2c(c1C(=O)O)CCNC2 [TCS401] (first compound 5 µM, partner dose 8.33333 µM) yielded a cell count of 111%.
`CN(c1ncccc1CNc1nc(Nc2ccc3c(c2)CC(=O)N3)ncc1C(F)(F)F)S(C)(=O)=O` + N#Cc1c(O)c2c(-c3ccc(-c4ccccc4O)cc3)csc2[nH]c1=O [A769662] (first compound 0.4 µM, partner dose 10 µM) yielded a cell count of 96.7%.
As to `CN(c1ncccc1CNc1nc(Nc2ccc3c(c2)CC(=O)N3)ncc1C(F)(F)F)S(C)(=O)=O` + O=S(=O)(c1ccccc1)N(CC(F)(F)F)c1ccc(C(O)(C(F)(F)F)C(F)(F)F)cc1 [T0901317] (first compound 0.4 µM, partner dose 7 µM), the cell count is 67.6%.
The figure for `C=C(c1ccc(C(=O)O)cc1)c1cc2c(cc1C)C(C)(C)CCC2(C)C` [Bexarotene] + COc1ccc(COc2ccc(Cc3cnc(N)nc3N)cc2OC)cc1 [GW2580] (first compound 10 µM, partner dose 5 µM) is 106%; for `NC1(c2ccc(-c3nc4ccn5c(=O)[nH]nc5c4cc3-c3ccccc3)cc2)CCC1` + O=C(O)c1ccc(-c2c[nH]c3ncc(-c4ccccc4)cc23)cc1C1CCCC1 [GSK650394] (first compound 2 µM, partner dose 0.8 µM) it is 56.8%.
In turn, `CCCS(=O)(=O)Nc1ccc(F)c(C(=O)c2c[nH]c3ncc(Cl)cc23)c1F` + Cc1nc(Nc2ncc(C(=O)Nc3c(C)cccc3Cl)s2)cc(N2CCN(CCO)CC2)n1 [dasatanib] (first compound 0.4 µM, partner dose 0.02 µM) displayed a cell count of 66.5%.
